According to the supplement of paper PMC8728848:
The list shows a part of the results.

What was measured:
Test in all cases: glycan array binding signal (z-score within array); higher = stronger binding
Conditions in all cases: glycan notation: IUPAC condensed, linker removed
GlcNAc(b1-3)Gal(b1-4)Glc = target: GlcNAc(b1-3)Gal(b1-4)Glc
Summary of the method: (§1)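 The Consortium for Functional Glycomics database supplied 3228 glycan arrays, of which those lacking an available protein sequence were dropped. The binding signal, a within-array Z-score, was averaged across arrays of the same protein sequence and across linkers. Negative scores can be read as non-binding.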

[1] = target: GlcNAc(b1-3)Gal(b1-4)GlcNAc
Summary of the method: as §1

[2] = target: GlcNAc(b1-3)Gal(b1-4)GlcNAc(b1-2)Man(a1-3)[GlcNAc(b1-3)Gal(b1-4)GlcNAc(b1-2)Man(a1-6)]Man(b1-4)GlcNAc(b1-4)GlcNAc
Summary of the method: as §1

[3] = target: GlcNAc(b1-3)Gal(b1-4)GlcNAc(b1-2)Man(a1-3)[GlcNAc(b1-3)Gal(b1-4)GlcNAc(b1-2)Man(a1-6)]Man(b1-4)GlcNAc(b1-4)[Fuc(a1-6)]GlcNAc
Summary of the method: as §1

[4] = target: GlcNAc(b1-3)Gal(b1-4)GlcNAc(b1-2)[GlcNAc(b1-3)Gal(b1-4)GlcNAc(b1-6)]Man(a1-6)[GlcNAc(b1-3)Gal(b1-4)GlcNAc(b1-2)Man(a1-3)]Man(b1-4)GlcNAc(b1-4)GlcNAc
Summary of the method: as §1

[5] = target: GlcNAc(b1-3)Gal(b1-4)GlcNAc(b1-3)Gal(b1-4)GlcNAc
Summary of the method: as §1

[6] = target: GlcNAc(b1-3)Gal(b1-4)GlcNAc(b1-3)Gal(b1-4)GlcNAc(b1-2)Man(a1-3)[GlcNAc(b1-3)Gal(b1-4)GlcNAc(b1-3)Gal(b1-4)GlcNAc(b1-2)Man(a1-6)]Man(b1-4)GlcNAc(b1-4)GlcNAc
Summary of the method: as §1

[7] = target: GlcNAc(b1-3)Gal(b1-4)GlcNAc(b1-3)Gal(b1-4)GlcNAc(b1-2)Man(a1-3)[GlcNAc(b1-3)Gal(b1-4)GlcNAc(b1-3)Gal(b1-4)GlcNAc(b1-2)Man(a1-6)]Man(b1-4)GlcNAc(b1-4)[Fuc(a1-6)]GlcNAc
Summary of the method: as §1

[8] = target: GlcNAc(b1-3)Gal(b1-4)GlcNAc(b1-3)Gal(b1-4)GlcNAc(b1-2)[GlcNAc(b1-3)Gal(b1-4)GlcNAc(b1-3)Gal(b1-4)GlcNAc(b1-6)]Man(a1-6)[GlcNAc(b1-3)Gal(b1-4)GlcNAc(b1-3)Gal(b1-4)GlcNAc(b1-2)Man(a1-3)]Man(b1-4)GlcNAc(b1-4)[Fuc(a1-6)]GlcNAc
Summary of the method: as §1

[9] = target: GlcNAc(b1-3)Gal(b1-4)GlcNAc(b1-3)Gal(b1-4)GlcNAc(b1-3)Gal(b1-4)GlcNAc(b1-2)Man(a1-3)[GlcNAc(b1-3)Gal(b1-4)GlcNAc(b1-3)Gal(b1-4)GlcNAc(b1-3)Gal(b1-4)GlcNAc(b1-2)Man(a1-6)]Man(b1-4)GlcNAc(b1-4)GlcNAc
Summary of the method: as §1

[10] = target: GlcNAc(b1-3)Gal(b1-4)GlcNAc(b1-3)Gal(b1-4)GlcNAc(b1-3)Gal(b1-4)GlcNAc(b1-2)Man(a1-3)[GlcNAc(b1-3)Gal(b1-4)GlcNAc(b1-3)Gal(b1-4)GlcNAc(b1-3)Gal(b1-4)GlcNAc(b1-2)Man(a1-6)]Man(b1-4)GlcNAc(b1-4)[Fuc(a1-6)]GlcNAc
Summary of the method: as §1

[11] = target: GlcNAc(b1-3)Gal(b1-4)GlcNAc(b1-3)Gal(b1-4)GlcNAc(b1-3)Gal(b1-4)GlcNAc(b1-2)[GlcNAc(b1-3)Gal(b1-4)GlcNAc(b1-3)Gal(b1-4)GlcNAc(b1-3)Gal(b1-4)GlcNAc(b1-6)]Man(a1-6)[GlcNAc(b1-3)Gal(b1-4)GlcNAc(b1-3)Gal(b1-4)GlcNAc(b1-3)Gal(b1-4)GlcNAc(b1-2)Man(a1-3)]Man(b1-4)GlcNAc(b1-4)[Fuc(a1-6)]GlcNAc
Summary of the method: as §1

[12] = target: GlcNAc(b1-3)Gal(b1-4)GlcNAc(b1-3)Gal(b1-4)GlcNAc(b1-3)Gal(b1-4)GlcNAc(b1-3)Gal(b1-4)GlcNAc(b1-2)Man(a1-3)[GlcNAc(b1-3)Gal(b1-4)GlcNAc(b1-3)Gal(b1-4)GlcNAc(b1-3)Gal(b1-4)GlcNAc(b1-3)Gal(b1-4)GlcNAc(b1-2)Man(a1-6)]Man(b1-4)GlcNAc(b1-4)GlcNAc
Summary of the method: as §1

[13] = target: GlcNAc(b1-3)Gal(b1-4)GlcNAc(b1-3)Gal(b1-4)GlcNAc(b1-3)Gal(b1-4)GlcNAc(b1-3)Gal(b1-4)GlcNAc(b1-2)Man(a1-3)[GlcNAc(b1-3)Gal(b1-4)GlcNAc(b1-3)Gal(b1-4)GlcNAc(b1-3)Gal(b1-4)GlcNAc(b1-3)Gal(b1-4)GlcNAc(b1-2)Man(a1-6)]Man(b1-4)GlcNAc(b1-4)[Fuc(a1-6)]GlcNAc
Summary of the method: as §1

[14] = target: GlcNAc(b1-3)Gal(b1-4)GlcNAc(b1-3)Gal(b1-4)GlcNAc(b1-3)Gal(b1-4)GlcNAc(b1-3)Gal(b1-4)GlcNAc(b1-2)[GlcNAc(b1-3)Gal(b1-4)GlcNAc(b1-3)Gal(b1-4)GlcNAc(b1-3)Gal(b1-4)GlcNAc(b1-3)Gal(b1-4)GlcNAc(b1-6)]Man(a1-6)[GlcNAc(b1-3)Gal(b1-4)GlcNAc(b1-3)Gal(b1-4)GlcNAc(b1-3)Gal(b1-4)GlcNAc(b1-3)Gal(b1-4)GlcNAc(b1-2)Man(a1-3)]Man(b1-4)GlcNAc(b1-4)[Fuc(a1-6)]GlcNAc
Summary of the method: as §1

[15] = target: GlcNAc(b1-3)Gal(b1-4)GlcNAc(b1-3)Gal(b1-4)GlcNAc(b1-3)GalNAc
Summary of the method: as §1

[16] = target: GlcNAc(b1-3)Gal(b1-4)GlcNAc(b1-3)GalNAc
Summary of the method: as §1

[17] = target: GlcNAc(b1-3)Gal(b1-4)GlcNAc(b1-3)[GlcNAc(b1-3)Gal(b1-4)GlcNAc(b1-3)]GalNAc
Summary of the method: as §1

[18] = target: GlcNAc(b1-3)Gal(b1-4)GlcNAc(b1-6)[Gal(b1-3)]GalNAc
Summary of the method: as §1

[19] = target: GlcNAc(b1-3)Gal(b1-4)GlcNAc(b1-6)[GlcNAc(b1-3)Gal(b1-3)]GalNAc
Summary of the method: as §1

[20] = target: GlcNAc(b1-3)Gal(b1-4)GlcNAc(b1-6)[GlcNAc(b1-3)]Gal(b1-4)GlcNAc
Summary of the method: as §1

GlcNAc(b1-3)GalNAc = target: GlcNAc(b1-3)GalNAc
Summary of the method: as §1

GlcNAc(b1-3)Man = target: GlcNAc(b1-3)Man
Summary of the method: as §1

[21] = target: GlcNAc(b1-3)[GlcNAc(b1-4)][GlcNAc(b1-6)]GlcNAc
Summary of the method: as §1

[22] = target: GlcNAc(b1-3)[GlcNAc(b1-6)]Gal(b1-4)GlcNAc
Summary of the method: as §1

[23] = target: GlcNAc(b1-3)[GlcNAc(b1-6)]GalNAc
Summary of the method: as §1

[24] = target: GlcNAc(b1-4)Gal(b1-4)GlcNAc
Summary of the method: as §1

GlcNAc(b1-4)GlcNAc = target: GlcNAc(b1-4)GlcNAc
Summary of the method: as §1

[25] = target: GlcNAc(b1-4)GlcNAc(b1-4)GlcNAc
Summary of the method: as §1

[26] = target: GlcNAc(b1-4)GlcNAc(b1-4)GlcNAc(b1-4)GlcNAc(b1-4)GlcNAc
Summary of the method: as §1

[27] = target: GlcNAc(b1-4)GlcNAc(b1-4)GlcNAc(b1-4)GlcNAc(b1-4)GlcNAc(b1-4)GlcNAc
Summary of the method: as §1

[28] = target: GlcNAc(b1-4)[GlcNAc(b1-6)]GalNAc
Summary of the method: as §1

[29] = target: GlcNAc(b1-6)Gal(b1-4)GlcNAc
Summary of the method: as §1

GlcNAc(b1-6)GalNAc = target: GlcNAc(b1-6)GalNAc
Summary of the method: as §1

[30] = target: GlcNAc6S(b1-3)Gal(b1-4)GlcNAc
Summary of the method: as §1

Kdn(a2-3)Gal(b1-3)GalNAc = target: Kdn(a2-3)Gal(b1-3)GalNAc
Summary of the method: as §1

Kdn(a2-3)Gal(b1-3)GlcNAc = target: Kdn(a2-3)Gal(b1-3)GlcNAc
Summary of the method: as §1

Kdn(a2-3)Gal(b1-4)Glc = target: Kdn(a2-3)Gal(b1-4)Glc
Summary of the method: as §1

Kdn(a2-3)Gal(b1-4)GlcNAc = target: Kdn(a2-3)Gal(b1-4)GlcNAc
Summary of the method: as §1

[31] = target: Kdn(a2-3)Gal(b1-4)[Fuc(a1-3)]GlcNAc
Summary of the method: as §1

Kdn(a2-6)Gal(b1-4)GlcNAc = target: Kdn(a2-6)Gal(b1-4)GlcNAc
Summary of the method: as §1

[32] = target: Man(a1-2)Man(a1-2)Man(a1-3)Man
Summary of the method: as §1

[33] = target: Man(a1-2)Man(a1-2)Man(a1-6)[Man(a1-3)]Man
Summary of the method: as §1

Man(a1-2)Man(a1-3)Man = target: Man(a1-2)Man(a1-3)Man
Summary of the method: as §1

[34] = target: Man(a1-2)Man(a1-3)[Man(a1-2)Man(a1-6)]Man
Summary of the method: as §1

B1: FimD (Bordetella pertussis) (protein)
chain: MPARVISFCGAALAVWAGLAVQPAMAVDPPVDCGRALGLHFWSSASLISDQTPDGTLIGKPVVGRSLLSKSCKVPDDIKEDLSDNHDGEPVDIVLELGSNYKIRPQSYGHPGIVVDLPFGSTEETGIAIYIDFGSSPMQKVGERQWLYPQKGEVLFDVLTINGDNAEVRYQAIKVGPLKRPRKLVLSQFPNLFTYKWVFMRGTSQERVLAQGTIDTDVATSTIDLKTCRYTSQTVSLPIIQRSALTGVGTTLGMTDFQMPFWCYGWPKVSVYMSATKTQTGVDGVALPATGQAAGMASGVGVQLINGKTQQPVKLGLQGKIALPEAQQTESATFSLPMKAQYYQTSTSTSAGKLSVTYAVTLNYD
- glycan array binding signal (z-score) (GlcNAc(b1-3)Gal(b1-4)Glc): -0.247
- glycan array binding signal (z-score) [1]: -0.296
- glycan array binding signal (z-score) [2]: -0.254
- glycan array binding signal (z-score) [3]: -0.128
- glycan array binding signal (z-score) [4]: 1.12
- glycan array binding signal (z-score) [5]: -0.049
- glycan array binding signal (z-score) [6]: 0.779
- glycan array binding signal (z-score) [7]: -0.021
- glycan array binding signal (z-score) [8]: 1.12
- glycan array binding signal (z-score) [9]: -0.233
- glycan array binding signal (z-score) [10]: 0.32
- glycan array binding signal (z-score) [11]: 1.29
- glycan array binding signal (z-score) [12]: 0.316
- glycan array binding signal (z-score) [13]: -0.184
- glycan array binding signal (z-score) [14]: 0.07
- glycan array binding signal (z-score) [15]: -0.229
- glycan array binding signal (z-score) [16]: -0.321
- glycan array binding signal (z-score) [17]: 0.187
- glycan array binding signal (z-score) [18]: 0.453
- glycan array binding signal (z-score) [19]: -0.162
- glycan array binding signal (z-score) [20]: -0.377
- glycan array binding signal (z-score) (GlcNAc(b1-3)GalNAc): -0.123
- glycan array binding signal (z-score) (GlcNAc(b1-3)Man): -0.421
- glycan array binding signal (z-score) [21]: 0.179
- glycan array binding signal (z-score) [22]: -0.317
- glycan array binding signal (z-score) [23]: -0.074
- glycan array binding signal (z-score) [24]: -0.165
- glycan array binding signal (z-score) (GlcNAc(b1-4)GlcNAc): -0.233
- glycan array binding signal (z-score) [25]: -0.602
- glycan array binding signal (z-score) [26]: -0.448
- glycan array binding signal (z-score) [27]: -0.178
- glycan array binding signal (z-score) [28]: -0.451
- glycan array binding signal (z-score) [29]: 0.234
- glycan array binding signal (z-score) (GlcNAc(b1-6)GalNAc): -0.117
- glycan array binding signal (z-score) [30]: -0.228
- glycan array binding signal (z-score) (Kdn(a2-3)Gal(b1-3)GalNAc): 0.281
- glycan array binding signal (z-score) (Kdn(a2-3)Gal(b1-3)GlcNAc): -0.261
- glycan array binding signal (z-score) (Kdn(a2-3)Gal(b1-4)Glc): -0.328
- glycan array binding signal (z-score) (Kdn(a2-3)Gal(b1-4)GlcNAc): -0.463
- glycan array binding signal (z-score) [31]: -0.279
- glycan array binding signal (z-score) (Kdn(a2-6)Gal(b1-4)GlcNAc): 0.054
- glycan array binding signal (z-score) [32]: -0.246
- glycan array binding signal (z-score) [33]: -0.092
- glycan array binding signal (z-score) (Man(a1-2)Man(a1-3)Man): 0.118
- glycan array binding signal (z-score) [34]: -0.493
